Test results: article PMC7819943, “Rice protein-binding microarrays: a tool to detect cis-acting elements near promoter regions in rice”
This is one part of the list.

These sequences were tested against T1, OsWOX13 (Oryza sativa, UniProt Q5QMM3 1-267) (assay: protein-binding microarray (RPBM); PBS, 2% BSA, 51.3 ng/ul salmon testes DNA, 50 uM zinc acetate, 200 nM TF, 25 C, 1 h; high values mean tight binding). Conditions: protein: recombinant; tags: N-terminal polyhistidine and DsRed monomer fusion (pET32a); label: CyDye5-dUTP incorporated in the synthesized complementary strand; 3' TTTTT single-stranded linker to array surface; dsDNA, one strand shown.
T1 sequence: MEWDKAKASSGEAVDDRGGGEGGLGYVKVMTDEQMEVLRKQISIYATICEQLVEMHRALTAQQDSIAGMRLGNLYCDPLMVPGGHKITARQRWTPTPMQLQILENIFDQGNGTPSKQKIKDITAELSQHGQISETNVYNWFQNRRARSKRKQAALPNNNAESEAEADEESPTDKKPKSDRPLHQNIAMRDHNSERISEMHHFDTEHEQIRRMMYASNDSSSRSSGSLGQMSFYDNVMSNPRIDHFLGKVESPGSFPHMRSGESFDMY
Procedure, shortened: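 The binding signal for each feature is its fluorescence intensity in arbitrary units. An Axon 4000B scanner was used to read a custom Agilent array that had been made double-stranded with Cy5-dUTP primer extension, blocked with 2% BSA, incubated at 25 °C for 1 h with 200 nM protein in PBS, 2% BSA, salmon testes DNA and 50 µM zinc acetate, and washed. The protein was an N-terminal polyhistidine–DsRed transcription factor fusion from E. coli BL21-CodonPlus, purified on Ni–NTA.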

Sequence	binding signal
CAAAATCACAGAAATTTTGACACGTGGCATATAATGCCAGCGGAGTCACCTAGTGCAG	8320 fluorescence intensity (a.u.)
AAAACCAATTGCACAATTTACATGTAAATCATGAGACGAACGGAGTCACCTAGTGCAG	5050 fluorescence intensity (a.u.)
GATCAATATGGTGATTAAATTTCCCTTCCTGCTATATTGTCGGAGTCACCTAGTGCAG	5260 fluorescence intensity (a.u.)
TTAATTAATTAGAGATTAAAGCCTTTCTCTCCCCAATCCCCGGAGTCACCTAGTGCAG	50300 fluorescence intensity (a.u.)
CATGATGAGTATCAGTACGGTTCAGATTCATGGTATTGGGCGGAGTCACCTAGTGCAG	7560 fluorescence intensity (a.u.)
ATGCAATCAACAAACTGTCATCATCTCCAAATTTGCTTCACGGAGTCACCTAGTGCAG	16000 fluorescence intensity (a.u.)
TTTATGATTATATTCGTAATGCTACATAATTTGATATGATCGGAGTCACCTAGTGCAG	28100 fluorescence intensity (a.u.)
TAGACTAGATTAATAATAAACCACCTCAATAGTATGTCTACGGAGTCACCTAGTGCAG	3150 fluorescence intensity (a.u.)
AGTCAATCTCCCCGTCTGTCTTCTCGGCCTCAACTCCCGTCGGAGTCACCTAGTGCAG	6610 fluorescence intensity (a.u.)
TCTAATTGTTAGGCCAATTGTCAATAGCCTATAAACAACCCGGAGTCACCTAGTGCAG	32400 fluorescence intensity (a.u.)
TAATAGCTAATTAGACAATTTGAGTACTACGAATCCGAAACGGAGTCACCTAGTGCAG	14900 fluorescence intensity (a.u.)
TAAGGGCTATAATTTTGCTGTTAATTGTTCACTAGAAGAGCGGAGTCACCTAGTGCAG	3820 fluorescence intensity (a.u.)
ATTTGATTGGACATCATCGAAATACTGAAATTTCCAAAATCGGAGTCACCTAGTGCAG	36000 fluorescence intensity (a.u.)
CAATTTATTGCCGGTTAATTAACCGCCGGAATTGCATAAACGGAGTCACCTAGTGCAG	11100 fluorescence intensity (a.u.)
GGTCCCTAAATTTTACACTGAATCTAATTTTCGTCCTTAACGGAGTCACCTAGTGCAG	3190 fluorescence intensity (a.u.)
GTGGGATCAAACATTAATTAATTATATAGTACATGTTTATCGGAGTCACCTAGTGCAG	11700 fluorescence intensity (a.u.)
TAAATGATCTGTGATAATTATTTGAAGGTACGTACGAACGCGGAGTCACCTAGTGCAG	9760 fluorescence intensity (a.u.)
TGGACTGGATTGAATCCGGCGTAACCAAATAAGGCCTAAACGGAGTCACCTAGTGCAG	3270 fluorescence intensity (a.u.)
TCTTGTTGATTAGTACTCCCTCCGTTTCGAAATGCTTGACCGGAGTCACCTAGTGCAG	19000 fluorescence intensity (a.u.)
TATAGATATATAGATTGATGAGTACGTTAATGTCAACGAGCGGAGTCACCTAGTGCAG	43300 fluorescence intensity (a.u.)
AGGGGTTACAGCTAATTAACTCATTAAACACGAAGACAAACGGAGTCACCTAGTGCAG	12600 fluorescence intensity (a.u.)

Sequence	binding signal
GGTATTACTGACTGGATTACCATGTGTGCGTCACATCGGACGGAGTCACCTAGTGCAG	6490 fluorescence intensity (a.u.)
TTGCTGATTGAAGCTGATACTGTCGTGAAATGAACCATGTCGGAGTCACCTAGTGCAG	38200 fluorescence intensity (a.u.)
TAAGTAATTATTAATTCTTTTCCTATCATTTGATTTATTGCGGAGTCACCTAGTGCAG	11700 fluorescence intensity (a.u.)
ATGCTTAATCAATCAAGTGGTTGGTACTGCGTGCAAGATGCGGAGTCACCTAGTGCAG	21800 fluorescence intensity (a.u.)
GATGTGATAGGAACTTATTAGTCCCATCTAAACAGGTTCTCGGAGTCACCTAGTGCAG	9050 fluorescence intensity (a.u.)
GTAGATTGAGCAAGCAAATAAAGAAGGAGATAACATAAGGCGGAGTCACCTAGTGCAG	13800 fluorescence intensity (a.u.)
CTTCACATGGAATTCCAATTACCACTAACTGAAAACGACACGGAGTCACCTAGTGCAG	5930 fluorescence intensity (a.u.)
TATAGATTAGAGAATTAGTGGAGAACAAAATATAATAAAGCGGAGTCACCTAGTGCAG	5050 fluorescence intensity (a.u.)
TTAATTGATTGATGCATGGGCCTCTGTTCCAGCCCATACACGGAGTCACCTAGTGCAG	51600 fluorescence intensity (a.u.)
ACAAATTGCTGTTACCGGCATCTTCTCAAATCCATCCAGTCGGAGTCACCTAGTGCAG	17200 fluorescence intensity (a.u.)
GATATGATAGAATACTCCAAATTCATTCGATATGATAGAGCGGAGTCACCTAGTGCAG	6440 fluorescence intensity (a.u.)
TACGGCGGTGATAGACGACTTTGGGGCATTGGGCGGTTAACGGAGTCACCTAGTGCAG	3350 fluorescence intensity (a.u.)
GTGATGAAAGATTGGGATTCGTTGCGAGTTTCAGCTGCCTCGGAGTCACCTAGTGCAG	7690 fluorescence intensity (a.u.)
GCGATTAAATGTACAGTAAATAGGGATGAACAATATACGACGGAGTCACCTAGTGCAG	3570 fluorescence intensity (a.u.)
TACCTGATTTAGGCCTCACTTAGAGCCTTGTACAGGGCCTCGGAGTCACCTAGTGCAG	5100 fluorescence intensity (a.u.)
ACGTTGATTAGTTAGTACTAACCTACTCCTACGTGTTAACCGGAGTCACCTAGTGCAG	30400 fluorescence intensity (a.u.)
ACAGATTGAGGTTCGTCCTCGATGGGAAAATAGAGCACCCCGGAGTCACCTAGTGCAG	15500 fluorescence intensity (a.u.)
TAACCGATCAGTTGATTAATCCGGCTCTCTCGCCCGCACGCGGAGTCACCTAGTGCAG	4630 fluorescence intensity (a.u.)
TGAACCTAATTAATCCATGATTATCCTATGTGATGCTACACGGAGTCACCTAGTGCAG	31900 fluorescence intensity (a.u.)
GTCTAATTCTGAAATAATTTTATATAGGGTTAATTTACAACGGAGTCACCTAGTGCAG	6400 fluorescence intensity (a.u.)
GCCTAAGATAATTGATAAGAGTGCTTAAAGTGTACAACCGCGGAGTCACCTAGTGCAG	37500 fluorescence intensity (a.u.)
